Results taken from PubChem BioAssay AID686979 (National Center for Advancing Translational Sciences (NCATS), 2013).
Among all 420,000 compounds or so, about 50,000 (12%) were called active. Inconclusive means that the source gave no clear call. Such entries were picked first, then a sample of the others. Calls follow the shape of the dose curve; as a rule, active = well fitted inhibition curve with a large enough effect; inconclusive = small, poorly fitted or top-dose-only effect; inactive = flat fitted curve, though single readings scatter. No potency is given beside an inconclusive call; the fits are too rough.
% is scaled to controls: 0 for no effect and ±100 for the full control effect; potency is read from the fitted curve at half-maximal effect; tags tell the direction and shape of the fitted curve.

Assay: qHTS for Inhibitors of human tyrosyl-DNA phosphodiesterase 1 (TDP1): qHTS in cells in presence of CPT; also: nearly all actives have a fitted effect of over 55% in size
Conditions: chicken DT40 Tdp1-/-;hTDP1 cells + 20 nM CPT, ATP luminescence, 48 h; activity change, negative = growth inhibition: at 46.2 µM (top of the series)
Procedure, shortened: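 Chicken DT40 Tdp1-/- cells stably complemented with human TDP1 were seeded at 400 cells/well in medium containing 20 nM camptothecin, exposed to pin-transferred compounds, and grown at 37 °C for at least 48 hr. Viability was read as ATP luminescence.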
In the case of `FC(F)(F)c1ccc(Cl)c(-n2c(-c3cc(C4CC4)[nH]n3)n[nH]c2=S)c1`, the Potency was “inactive”.
With `Cn1c(Nc2ccc(Cl)cc2)cc(=O)n(C)c1=O` the Potency was “inactive”.
In the case of `COc1ccc(C(=O)NCC(=O)NC2=NCCS2)cc1`, the Potency was “inactive”.
For `CC(NC(=O)COC(=O)C1CCN(c2ccc(C(F)(F)F)cn2)CC1)c1ccccc1` (stereo not given), the activity change, negative = growth inhibition was inconclusive: -19.8% [inhibitor].
With `CC(NC(=S)Nc1cccc(C(F)(F)F)c1)C(C)(C)C` (stereo not given) the Potency was inconclusive [inhibitor, single point].
With `Cc1ccccc1NC(=O)c1ccc(-c2ccc(Cl)cc2Cl)o1` the Potency was inconclusive [inhibitor, single point].
In the case of `COc1ccc(-c2nc(Cn3c(SCc4cccc(C(F)(F)F)c4)nc4cccnc43)c(C)o2)cc1OC`, the Potency was inconclusive [inhibitor, single point].
With `COc1ccc(C(=O)Nc2cccc(C(=O)NCc3ccco3)c2)cc1` the Potency was inconclusive [inhibitor, single point].
In the case of `CC1CN(CCC(=O)N2CCCC(C(=O)c3nccn3C)C2)Cc2cc(Cl)ccc2O1` (stereo not given), the activity change, negative = growth inhibition was inactive: 23.2% [at 9.04 µM].
For `COc1ccccc1C(=O)NCCNc1nc2cc(C)cc(C)c2cc1C#N`, the Potency was inconclusive [inhibitor, single point].
In the case of `CCCN1CNC(=S)N(c2cccc(C)c2C)C1`, the Potency was “inactive”.
In the case of `Cc1cc(OCC(=O)NCCc2c[nH]c3ccccc23)c2c(C)c(C)c(=O)oc2c1`, the Potency was inconclusive [inhibitor, partial curve].
In the case of `O=C(N/N=C/c1ccccc1O)c1cccc2ccccc12`, the Potency was active: 5.8 µM.
In the case of `Cc1cc(OCC(O)CN2CCN(c3cccc(Cl)c3)CC2)ccc1Cl` (stereo not given), the Potency was inconclusive [inhibitor, single point].
For `O=C(NCCN1CCC(n2c(=O)[nH]c3ccccc32)CC1)c1ccc(F)c(F)c1`, the Potency was active: 0.326 µM.
In the case of `Cc1cc(/C=N\NC(=O)COc2cccc3cccnc23)c(C)n1-c1ccccc1`, the activity change, negative = growth inhibition was inconclusive: -33.1% [inhibitor].
With `Cc1ccc(C(=O)NC2CCc3ccccc3C2=O)cc1` (stereo not given) the Potency was inconclusive [inhibitor, single point].
In the case of `COc1cc2c3nnc(-c4ccc(F)cc4)c-3cn(Cc3ccccc3)c2cc1OC`, the Potency was active: 3.26 µM.
With `O=C(NN1C(=O)/C(=C/c2cccc(O)c2)SC1=S)c1ccccc1O` the Potency was “inactive”.
In the case of `CC(C)Cc1nn2c(=O)cc(COC(=O)c3ccccc3NC(=O)C3CCCCC3)nc2s1`, the Potency was “inactive”.
For `Cc1ccccc1C(=O)Nc1ccccc1-c1nnn(CC(=O)Nc2ccc3c(c2)OCCO3)n1`, the Potency was active: 23.1 µM.
With `Cc1cc(=O)oc2cc(NC(=O)c3cccc(S(=O)(=O)N(C)C)c3)ccc12` the Potency was “inactive”.
With `O=C(Nc1ncnc2sc3c(c12)CCCCC3)c1ccc(F)cc1` the Potency was inconclusive [inhibitor, single point].
With `CCCc1nn2c(=O)cc(COC(=O)c3ccc(NC(=O)C4CCCCC4)cc3)nc2s1` the Potency was inconclusive [inhibitor, partial curve].
With `Cn1nc(C(C)(C)C)cc1NC(=O)C1(C)CCN1C(=O)Cc1ccc(-c2ccccc2)cc1` (stereo not given) the Potency was active: 14.6 µM.
For `Cc1ncc(CN2CCCC(C(=O)Nc3ccc(-c4cccc(F)c4)cc3)C2)s1` (stereo not given), the Potency was inconclusive [inhibitor, single point].
With `COCc1cc(C)nc(N2CCNCC2)c1C#N` the Potency was “inactive”.
With `Nc1nc(SCCO)[nH]c(=O)c1NC(=O)c1ccccc1F` the Potency was “inactive”.
With `COc1ccc(/C=C(/NC(=O)c2ccc(OC)c(OC)c2)C(=O)NCCc2c[nH]c3ccccc23)cc1` the Potency was inconclusive [inhibitor, single point].
For `OC[C@@H]1CN(Cc2ccco2)C[C@H](n2cnc3c(NCc4ccncc4)ncnc32)O1`, the Potency was “inactive”.
With `CCN(C(=O)c1c(-c2ccccc2Cl)noc1C)C1CCCCC1` the Potency was inconclusive [inhibitor, single point].
In the case of `O=C(CN1CCN(Cc2cccc(Cl)c2)C1=O)NCc1cccs1`, the Potency was “inactive”.
With `C=CCSc1nnc(NC(=O)c2ccc(Cl)nc2)s1` the Potency was “inactive”.
With `O=C(Nc1cccc(OC(F)(F)F)c1)C1Cc2c(-c3ccccc3Oc3ccccc3)ccnc2O1` (stereo not given) the Potency was inconclusive [inhibitor, single point].
With `Cc1nc(C(=O)NNC(=O)c2ccc(Cl)cc2)c(C(F)(F)F)o1` the Potency was inconclusive [inhibitor, single point].
In the case of `CCOc1ccccc1N(C)C(=O)Cn1ncc2c([nH]c3ccc(C)cc32)c1=O`, the Potency was inconclusive [inhibitor, single point].
In the case of `Nc1ccc(N2CCCCC2)cc1N1CCCCC1`, the Potency was inconclusive [inhibitor, single point].
With `Cc1nn(-c2ccccc2)c(C)c1/C=N/NC(=O)c1cc(-c2ccc(Cl)s2)[nH]n1` the Potency was active: 4.61 µM.
With `CN1CCN(c2ccc3c(c2)OC[C@H](Cc2ccccc2)NS3(=O)=O)CC1` the Potency was inconclusive [inhibitor, single point].
In the case of `CCCC(=O)c1ccc(N2CCC(C)CC2)c(F)c1`, the Potency was inconclusive [inhibitor, single point].
For `Cc1ccccc1-c1nccc(Nc2ccc(F)cc2)n1`, the Potency was inconclusive [inhibitor, single point].
For `O=C(Nc1ccccc1N1CCCC1)c1cccc(Cl)c1Cl`, the Potency was “inactive”.
In the case of `CN(C)c1ccc(NC(=O)Nc2ccc3c(c2)c(=O)n(C)n3-c2ccccc2)cc1`, the Potency was inconclusive [inhibitor, single point].
With `Cc1ccc(S(=O)(=O)NCc2nc3cccnc3n2Cc2ccccc2Cl)c(C)c1` the Potency was inconclusive [inhibitor, partial curve, poor fit].
With `O=Cc1cc(Br)c(OC(=O)N2CCOCC2)c(Br)c1` the Potency was inconclusive [inhibitor, single point].
With `Cc1ccc(C2(c3noc(CN(C)Cc4cccnc4)n3)CCCC2)cc1` the Potency was inconclusive [inhibitor, single point].
With `CCc1ccccc1NC(=O)N1CC(C)Sc2ccccc21` (stereo not given) the Potency was active: 20.6 µM.
In the case of `COc1ccccc1NC(=O)CN1C(=O)c2ccccc2Sc2ccc(C(=O)N3CCCC3)cc21`, the Potency was “inactive”.
For `C/C=C\C=C\C(=O)Nc1cccc(C2=NOC3(C2)C[C@@H](C(N)=O)N(C(=O)C(c2ccccc2)c2ccccc2)C3)c1` (stereo not given in full), the Potency was inconclusive [inhibitor, single point].
In the case of `CCO[C@@H]1OC(C(=O)Nc2ccccc2)=C[C@H](c2ccc3c(c2)OCO3)[C@H]1CCCO`, the Potency was inconclusive [inhibitor, single point].
For `O=S(=O)(Nc1ccc(Cc2ccncc2)cc1)c1ccc(Cl)c(Cl)c1`, the Potency was inconclusive [inhibitor, partial curve].
For `O=C(CNc1cc(S(=O)(=O)N2CCOCC2)ccc1NCC1CCCO1)Nc1cccc(F)c1` (stereo not given), the Potency was “inactive”.
In the case of `CC(C)C[C@@H](CO)N1CCN(CC(C)C)CCC1=O`, the Potency was “inactive”.
In the case of `Cc1cc(C(=O)OCC(=O)NC(C)c2ccc(F)cc2)c(C)o1` (stereo not given), the Potency was inconclusive [inhibitor, single point].
For `CC(=O)c1ccc(NC(=O)c2nc(-c3ccccc3)n(-c3ccccc3)n2)cc1`, the Potency was inconclusive [inhibitor, single point].
With `COCC(C)n1c(SCC(=O)NC(=O)Nc2ccc3c(c2)OCCO3)nc2ccccc2c1=O` (stereo not given) the Potency was inconclusive [inhibitor, single point].
In the case of `CC1(C(=O)NCCc2ccccc2)Cc2c(-c3cccc(C(F)(F)F)c3)ccnc2O1` (stereo not given), the Potency was inconclusive [inhibitor, single point].
For `COc1cc(OC)c(NS(=O)(=O)c2ccc(Cl)c(C(=O)OC(C)C(=O)N3CCCC3)c2)cc1Cl` (stereo not given), the Potency was active: 18.4 µM.
In the case of `O=C(Nc1ccc(Br)cc1F)N1CC=C(c2c[nH]c3ccccc23)CC1`, the Potency was active: 0.651 µM.
For `C[C@]12CCC3C(CC[C@H]4CC(O)CC[C@]34C)C1CC/C2=N/O` (stereo not given in full), the Potency was inconclusive [inhibitor, single point].
With `COc1ccc(NC(=O)COC(=O)c2c(-c3ccccc3)noc2C)cc1` the Potency was inconclusive [inhibitor, partial curve, poor fit].
For `COC(=O)c1ccccc1NC(=O)c1cc2nc(C3CC3)cc(C(F)(F)F)n2n1`, the Potency was inconclusive [inhibitor, full curve, poor fit].
In the case of `O=C(COc1coc(CN2CCCc3ccccc32)cc1=O)Nc1ccccc1`, the Potency was inconclusive [inhibitor, single point].
With `CC1=C(C(=O)OCC(Br)(Br)Br)C(c2cccc([N+](=O)[O-])c2)NC(=O)N1CCCC(=O)O` (stereo not given) the Potency was “inactive”.
In the case of `CCc1nc2ccc(C(=O)N(CC)CCN(C)C)cn2c1N(C)CCCc1ccccc1`, the Potency was inconclusive [inhibitor, single point].
In the case of `C=CCn1c(O)c(N=Nc2ccccc2C)c2ccccc21`, the Potency was active: 18.4 µM.
In the case of `CCOP(=O)(Nc1cccc2oc(=O)c3ccccc3c12)OCC`, the Potency was inconclusive [inhibitor, single point].
For `CN(C)S(=O)(=O)c1ccc(C(=O)Nc2ccc(F)cc2F)cc1`, the Potency was “inactive”.
For `CC1(C)CC(c2nc(-c3ccc(Cl)cc3)cs2)CCS1` (stereo not given), the Potency was inconclusive [inhibitor, single point].
With `CCS(=O)(=O)NCc1csc(C)n1` the Potency was inconclusive [inhibitor, single point].
